Laboratory results: PubChem BioAssay AID686970 (National Center for Advancing Translational Sciences (NCATS), 2013)
Out of some 360,000 compounds screened, about 6,000 (1.7%) were called active. The inconclusive results got no clear call from the source; some entries with a clear call stand among them for comparison. The call rests on the fitted dose curve; in most records, active means well fitted cell-killing curve with a large enough effect; inconclusive means small, poorly fitted or top-dose-only effect, or effect the other way; inactive means flat fitted curve, though single readings scatter. Potencies of inconclusive entries are left out as doubtful fits.

Assay: qHTS for induction of synthetic lethality in tumor cells producing 2HG: qHTS for the HT-1080-NT fibrosarcoma cell line;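 further: NT is the 2HG producing partner of a matched IDH1 knockdown line; nearly all actives have a fitted effect of over 55% in size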;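 on activity, negative = less viability: 0% = DMSO-treated cells and -100% = media-only wells without cells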
Conditions: HT-1080-NT fibrosarcoma viability, CellTiter-Glo ATP luminescence, 48 h; activity, negative = less viability: at 46.1 µM (top of the series) unless noted
Procedure, shortened: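 Compounds were tested in concentration-response format on HT-1080-NT cells for 48 hours at 37 degrees C. Cell viability came from CellTiter-Glo luminescence; curves were classified by r2, response magnitude and activity.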
Potency means the concentration at half of the fitted maximal effect; tags describe the fitted curve by direction and shape.

Compound	Potency	activity, negative = less viability
Cc1ccc(-c2nc(N/N=C/c3ccccc3[N+](=O)[O-])c3ccccc3n2)cc1	inconclusive [cytotoxic, partial curve, poor fit]	
CC(=O)Nc1ccc(-c2ccnc3c2CC(C(=O)Nc2cccc(C(F)(F)F)c2)O3)cc1 (stereo not given)	inconclusive [cytotoxic, single point]	
CCOC(=O)CNC(=O)CSc1nnc(-c2cccc(C)c2)n1-c1ccc(OC)cc1	inconclusive [cytotoxic, single point]	
COc1ccc(C2=NOC(C(=O)NCc3ccc(F)cc3)C2)cc1 (stereo not given)	inconclusive [cytotoxic, partial curve]	
CC(CC(=O)Nc1ccc(Cl)c([N+](=O)[O-])c1)c1ccccc1 (stereo not given)	inconclusive [cytotoxic, single point]	
O=C(Nc1cccc(Cl)c1)c1cccc(Oc2ccc([N+](=O)[O-])cc2Cl)c1	inconclusive [cytotoxic, partial curve]	
CN(C)CCCNS(=O)(=O)c1ccc(-n2nnc3ccccc32)c([N+](=O)[O-])c1	inconclusive [cytotoxic, single point]	
NC(=O)NS(=O)(=O)Oc1ccccc1	inactive	
O=C(Nc1cc(S(=O)(=O)N2CCOCC2)ccc1Cl)c1cc([N+](=O)[O-])ccc1Cl	active: 9.2 µM	
CCn1c(Cc2ccc(OC)cc2)nnc1SCc1nc2ccccc2c(=O)[nH]1	inactive	
CN(Cc1ccccc1Cl)C(=O)c1cc2ccccc2o1	inactive	
COCCNc1nc(-c2ccccc2F)c2sc(-c3ccccc3)cc2n1	inconclusive [cytotoxic, single point]	
CCCCCC(=O)Nc1ccc(-c2csc(N)n2)cc1	inconclusive [cytotoxic, single point]	
Cn1c(C(C(=O)NCC2CCCO2)N(CCc2ccccc2)C(=O)Cn2nnc3ccccc32)nc2ccccc21 (stereo not given)	inactive	
C[C@H]1CN([C@@H](C)CO)C(=O)c2cc(Br)cnc2O[C@H]1CN(C)Cc1ccc(Oc2ccccc2)cc1	inconclusive [cytotoxic, single point]	
C[C@@H]1CN([C@H](C)CO)C(=O)CCCn2nncc2CO[C@H]1CN(C)S(=O)(=O)c1ccc(C#N)cc1	inactive	
N#CC(C#N)=C1C=CC=CN1/C(=C\c1ccccc1Cl)C(=O)c1ccccc1	inconclusive [cytotoxic, single point]	
C/C(=N\Nc1ccc(Cl)nn1)c1ccccc1O	active: 0.731 µM	
Cc1ccc(S(=O)(=O)c2nc(NN(C)C)sc2Cl)cc1	inactive	
C[C@]1(C(=O)NCc2cc(F)cc(C(F)(F)F)c2)C=C[C@@H](Cc2ccccc2)N1C(=O)c1ccccc1	inconclusive [cytotoxic, single point]	
O=[N+]([O-])c1cc2c(cc1Br)CCN2	inactive	
CCOC(=O)C1=C(Cn2cnc3ccccc32)NC(=O)NC1c1cc(C)ccc1C (stereo not given)	inconclusive [cytotoxic, single point]	
Cc1cc(NCCN2CCOCC2)c2ccc3ccccc3c2n1	inconclusive [cytotoxic, single point]	
Fc1ccc(NC(=S)NNc2ncc(C(F)(F)F)cc2Cl)c(F)c1	inconclusive [cytotoxic, full curve]	

Compound	Potency	activity, negative = less viability
CCOc1ccccc1N(C)C(=O)Cn1ncc2c([nH]c3ccccc32)c1=O	inconclusive [cytotoxic, single point]	
COc1ccccc1NCC(O)COc1ccc(C(C)(C)C)cc1 (stereo not given)	active: 16.4 µM	
O=C(CCC(=O)Nc1ccccc1Cl)NN=C1CCCC1	inactive	
COc1ccc(OCCN2CCC(C(=O)NC(c3ccccc3)c3ccc4ccccc4n3)CC2)cc1 (stereo not given)	inconclusive [cytotoxic, single point]	
O=C(O)c1cc(N=Cc2c(O)c3ccccc3oc2=O)ccc1O	inconclusive [cytotoxic, single point]	
CC(C)(C)c1ccc(-n2ncc3c2CCCC3NC(=O)CN2CCCC2=O)cc1 (stereo not given)	inconclusive [cytotoxic, single point]	
CCCC1OC(c2cc3c(cc2Cl)OCO3)OCC1CC (stereo not given)	inconclusive [cytotoxic, single point]	
Cc1c(Cl)cccc1Nc1nc(NCCO)c2ccccc2n1	inconclusive [cytotoxic, single point]	
O=C(Nc1nnc(-c2ccccc2)o1)c1ccc(Cl)cc1	inconclusive [cytotoxic, single point]	
CCCOCCOC(=O)c1[nH]c2c(c1C)C(=O)CC(c1cc(OC)ccc1OC)C2 (stereo not given)	active: 5.8 µM	
CCOc1ccc(-n2c(C)c(C(=O)OC)c3cc(O)ccc32)cc1	inactive	
CC(C)c1ccc(NC(=O)Nc2nc(C(N)C3CCCCC3)cs2)cc1 (stereo not given)	inconclusive [cytotoxic, single point]	
CCN1/C(=C/c2cccc[n+]2C)Sc2ccc(OC)cc21		inconclusive: -32.6% [cytotoxic]
CN(C)CCNC(=O)c1cccc2nc3c(ccc4ccccc43)nc12	inconclusive [cytotoxic, single point]	
O=C(CCN1C(=O)C2C3C=CC(C4CC34)C2C1=O)Oc1cccc2cccnc12 (stereo not given)	active: 2 µM	
CC(C)C[C@H]1CNC(=S)N1C[C@H]1CCCN1C[C@H](CC(C)C)N1C[C@H](Cc2ccc(O)cc2)N(CC2CCCCC2)C1=S	active: 18.4 µM	
CC(C)C(=O)COc1c2occc2cc2ccc(=O)oc12	inactive	
N#Cc1nc(-c2ccc(OCc3ccccc3)cc2)oc1N1CCC(C(N)=O)CC1	inconclusive [cytotoxic, partial curve]	
Oc1c(N=Nc2nn[nH]n2)ccc2ccccc12	inconclusive [cytotoxic, single point]	
C[C@H](O)C#Cc1cnc2c(c1)C(=O)N([C@H](C)CO)C[C@@H](C)[C@@H](CN(C)Cc1ccc(-c3ccccc3)cc1)O2	inconclusive [cytotoxic, single point]	
O=c1c2c3c(sc2n(CCN2CCCCC2)c(=O)n1Cc1ccco1)CCCCC3	inconclusive [cytotoxic, single point]	
COc1cccc(-c2cnc3cccnn23)c1	inactive	
CCOC(=O)c1ccc(-n2c(C)nc3c(cnn3-c3ccc(Cl)cc3)c2=O)cc1	inactive	
COc1ccc(/C=C/c2cc(-c3ccc(C)cc3)o[n+]2C)cc1	active: 14.6 µM	

Compound	Potency	activity, negative = less viability
Cn1c(SCc2c(Cl)cccc2Cl)nnc1-c1cccs1		inconclusive: 30.9%
CCOc1ccc2c(c1)OC(c1ccc(OC)cc1)(C(F)(F)F)NC2=O (stereo not given)	inconclusive [cytotoxic, full curve]	
Cc1cccc(C)c1OCCNC(=O)OCc1ccccc1	inactive	
c1ccc(CNc2nc(NCc3cccs3)nc3ccsc23)cc1	inconclusive [cytotoxic, single point]	
COC(=O)C1C(=O)OC(C)(C)C1C(C)C(=O)c1ccc(C)cc1C (stereo not given)		inconclusive: 32.5%
CC1(C)CC2CC(C)(CN2C(=O)COc2cccc3ccccc23)C1 (stereo not given)	inconclusive [cytotoxic, single point]	
O=C(NC(NC(=S)Nc1c(Cl)cc(Cl)cc1Cl)C(Cl)(Cl)Cl)OCc1ccccc1 (stereo not given)	inconclusive [cytotoxic, partial curve]	
COc1ccccc1CNc1nc(NCC2CC2)nc2ccsc12	inconclusive [cytotoxic, single point]	
CC(=O)Nc1ccc(S(=O)(=O)c2ccnc3cc(Cl)ccc23)cc1	inconclusive [cytotoxic, single point]	
CCCCCc1ccc(OCCOCCn2c[n+](C)c3ccccc32)c(CCCCC)c1	inconclusive [cytotoxic, single point]	
O=C(C=Cc1ccccc1)c1c[nH]c2ccccc2c1=O	active: 8.2 µM	
O=C(CC(=O)c1cc(Cl)ccc1O)c1ccccc1	inconclusive [cytotoxic, single point]	
COc1ccc(/C=C/C(=O)Oc2ccc(/C=N/NC(=O)c3ccncc3)cc2)cc1	inactive	
CCCCC(=O)NC(c1ccccc1Cl)c1c(O)ccc2ccccc12 (stereo not given)	inconclusive [cytotoxic, partial curve]	
COc1cc(NC(=O)c2c(F)c(F)c(F)c(F)c2F)c(OC)cc1Cl	inconclusive [cytotoxic, single point]	
Cn1c(=O)[nH]c(=O)c2c1nc(N1CCN(CCO)CC1)n2Cc1ccccc1Cl	inactive	
Cn1nc(C(=O)N2CCC(C(N)=O)CC2)c2c1-c1ccccc1SC2	inactive	
O=C(c1cccc(C(F)(F)F)c1)C1CCCN(Cc2cccn2-c2ncccn2)C1 (stereo not given)	inconclusive [cytotoxic, single point]	
Cc1cc(Nc2ccc(Cl)cc2)nc(-c2ccccc2O)n1	inconclusive [cytotoxic, single point]	
CCCCc1ccc(NC(=O)c2ccc(N(C)S(C)(=O)=O)cc2)cc1	inconclusive [cytotoxic, partial curve, poor fit]	
O=C(NCc1ccco1)c1ccccc1NS(=O)(=O)c1ccc(Cl)s1	inconclusive [cytotoxic, single point]	
Cc1cc(C(=O)OCC(=O)Nc2ccccc2F)c(C)o1	inconclusive [rising, partial curve]	
